In patent US20180230235A1 (Affibody, published 2018):
Changes are numbered by the printed parent chain. Names and notes keep the numbering of the source.

B1: His6-Z06936 (designed binder)
chain: MGSSHHHHHHLQVDAKYAKENLFAGWEIDDLPNLTEDQRNAFIYKLWDDPSQSSELLSEAKKLNDSQAPKVD
notes: monomer
B2: His6-Z06919 (designed binder)
chain: B1 chain with N21H, D29E, D37Y
notes: monomer
B3: His6-Z06942 (designed binder)
chain: B1 chain with D29S, E36D, D37Y
notes: monomer
B4: His6-Z06959 (designed binder)
chain: B1 chain with D29T, E36I, D37E
notes: monomer
B5: His6-Z06961 (designed binder)
chain: B1 chain with D29G, D37Q, N40H
notes: monomer
B6: His6-Z06976 (designed binder)
chain: B1 chain with L22I, E36D, D37E
notes: monomer
B7: His6-Z06984 (designed binder)
chain: B1 chain with L22I, E36T, D37Y
notes: monomer
B8: His6-Z06986 (designed binder)
chain: B1 chain with D29N, D37Y
notes: monomer
B9: His6-Z06999 (designed binder)
chain: B1 chain with N21H, D29T, D37Q
notes: monomer
B10: His6-Z07084 (designed binder)
chain: B1 chain with N21W, L22W, F23W, W26I, D29A, E36Q, D37Q, N40D
notes: monomer
B11: His6-Z07089 (designed binder)
chain: B1 chain with L22I, D29T, E36V, D37Q, N40H
notes: monomer
B12: His6-Z07091 (designed binder)
chain: B1 chain with D37S
notes: monomer
B13: His6-Z08693 (designed binder)
chain: MGSSHHHHHHLQVDAKYAKEWKFASIEIADLPNLTQHQKDAFIFKLWDDPSQSSELLAEAKKLNDSQAPKVD
notes: also called Z04196 with the amino acid substitution A54S
B14: ^99mTc-(HE)3-Z09781 (designed binder)
chain: HEHEHEAEAKYAKENLFAGWEIDDLPNLTEDQRNAFIYKLWDDPSQSSELLSEAKKLNDSQAPKVD
modifications: [99mTc(CO)3]+ bound to the N-terminal HEHEHE tag
notes: also called 99mTc-labeled (HE)3-Z09781; ^99mTc-Z09781
B15: ^99mTc-(HE)3-Z09782 (designed binder)
chain: B14 chain with D23S, E30D, D31Y
modifications: [99mTc(CO)3]+ bound to the N-terminal HEHEHE tag
notes: also called 99mTc-labeled (HE)3-Z09782
B16: ^99mTc-(HE)3-Z09783 (designed binder)
chain: B14 chain with L16I, E30D, D31E
modifications: [99mTc(CO)3]+ bound to the N-terminal HEHEHE tag
notes: also called 99mTc-labeled (HE)3-Z09783
B17: ^99mTc-(HE)3-Z09784 (designed binder)
chain: B14 chain with N15W, L16W, F17W, W20I, D23A, E30Q, D31Q, N34D
modifications: [99mTc(CO)3]+ bound to the N-terminal HEHEHE tag
notes: also called 99mTc-labeled (HE)3-Z09784
B18: Z07091 ABD fusion protein (designed binder, not shown: large carriers; small tags and cut ends)
chain: VDAKYAKENLFAGWEIDDLPNLTESQRNAFIYKLWDDPSQSSELLSEAKKLNDSQAPK
notes: periplasmic sample
B19: Z07095 ABD fusion protein (designed binder, not shown: large carriers; small tags and cut ends)
chain: B18 chain with N9H, L10W, F11A, S25F
notes: periplasmic sample
B20: Z07096 ABD fusion protein (designed binder, not shown: large carriers; small tags and cut ends)
chain: B18 chain with L10I, D18E, S25Y
notes: periplasmic sample
B21: Z07100 ABD fusion protein (designed binder, not shown: large carriers; small tags and cut ends)
chain: B18 chain with N9H, E24D, S25H
notes: periplasmic sample
B22: Z07103 ABD fusion protein (designed binder, not shown: large carriers; small tags and cut ends)
chain: B18 chain with N9H, D17Q, S25D
notes: periplasmic sample
B23: Z07104 ABD fusion protein (designed binder, not shown: large carriers; small tags and cut ends)
chain: B18 chain with L10I, D17S, E24I, S25D
notes: periplasmic sample
B24: Z07112 ABD fusion protein (designed binder, not shown: large carriers; small tags and cut ends)
chain: B18 chain with L10I, F11W, S25R
notes: periplasmic sample
B25: Z06949 ABD fusion protein (designed binder, not shown: large carriers; small tags and cut ends)
chain: VDAKYAKEWRWAGVEIQDLPNLTQQQRDAFIYKLWDDPSQSSELLSEAKKLNDSQAPK
notes: periplasmic sample
B26: Z07034 ABD fusion protein (designed binder, not shown: large carriers; small tags and cut ends)
chain: B25 chain with R10W, W11Y, Q17A
notes: periplasmic sample
B27: Z07064 ABD fusion protein (designed binder, not shown: large carriers; small tags and cut ends)
chain: B25 chain with W11Y, G13S, V14I, Q17A, Q25R
notes: periplasmic sample
B28: Z07084 ABD fusion protein (designed binder, not shown: large carriers; small tags and cut ends)
chain: B25 chain with R10W, V14I, Q17A
notes: periplasmic sample
B29: AQHDEALE-[Z04187]-VDYV-[Z03639]-YVPG (designed binder)
chain: AQHDEALEVDAKYAKENLWAGWEIDDLPNLTHSQRNAFIYKLWDDPSQSSELLAEAKKLNDAQAPKVDYVVDNKFNKELGWATWEIFNLPNLNGVQVKAFIDSLRDDPSQSANLLAEAKKLNDAQAPKYVPG
notes: periplasmic fraction
B30: AQHDEALE-[Z04191]-VDYV-[Z03639]-YVPG (designed binder)
chain: B29 chain with N17D, L18V, W19N, G21W, W22Q, D25I, D26K, H32I, S33F, N36D
notes: periplasmic fraction
B31: AQHDEALE-[Z04196]-VDYV-[Z03639]-YVPG (designed binder)
chain: AQHDEALEVDAKYAKEWKFASIEIADLPNLTQHQKDAFIFKLWDDPSQSSELLAEAKKLNDAQAPKVDYVVDNKFNKELGWATWEIFNLPNLNGVQVKAFIDSLRDDPSQSANLLAEAKKLNDAQAPKYVPG
notes: periplasmic fraction
B32: AQHDEALE-[Z04208]-VDYV-[Z03639]-YVPG (designed binder)
chain: B29 chain with N17H, L18E, W22V, D25Q, D26S, H32T, S33Q, R35K, N36H
notes: periplasmic fraction
B33: AQHDEALE-[Z04421]-VDYV-[Z03639]-YVPG (designed binder)
chain: B29 chain with N17D, L18R, W19Y, G21W, W22T, D25H, D26K, H32V, S33R, R35Q
notes: periplasmic fraction
B34: (HE)3-Z09781, unlabeled (designed binder)
chain: B14 chain
notes: also called unlabeled Z variant
B35: (HE)3-Z09782, unlabeled (designed binder)
chain: B14 chain with D23S, E30D, D31Y
notes: as for B34
B36: (HE)3-Z09783, unlabeled (designed binder)
chain: B14 chain with L16I, E30D, D31E
notes: as for B34
B37: (HE)3-Z09784, unlabeled (designed binder)
chain: B14 chain with N15W, L16W, F17W, W20I, D23A, E30Q, D31Q, N34D
notes: as for B34

target: T1, CAIX on the surface of LS174T and SK-RC-52 cells (UniProt Q16790 38-459); assay: flow cytometry titration on SK-RC-52 cells

Binder | EC50 [nM]
B1 | 15
B2 | 20
B3 | 14
B4 | 18
B5 | 17
B6 | 13
B7 | 11
B8 | 12
B9 | 16
B10 | 37
B11 | 12
B12 | 18
B13 | 1820

target: T2, Human CAIX (carbonic anhydrase IX) (human, UniProt Q16790 59-414); assay: Biacore, Z variant over immobilized human CAIX, 1:1 model

Binder | Kd [nM] | koff [s⁻¹] | kon [M⁻¹ s⁻¹]
B1 | 27 | 0.00208 | 77700
B3 | 11 | 0.00188 | 167000
B6 | 32 | 0.00292 | 90400
B10 | 18 | 0.0106 | 598000

target: T1, CAIX on the surface of LS174T and …; assay: LigandTracer on SK-RC-52 cells, first binding event (KD1)

Binder | Kd [nM]
B14 | ≤ 1.3
B15 | 6.1
B16 | 4.5
B17 | 9.1

target: T1, CAIX on the surface of LS174T and …; assay: LigandTracer on SK-RC-52 cells, first binding event (ka1)

Binder | kon [M⁻¹ s⁻¹]
B14 | 7400
B15 | 3300
B16 | 5900
B17 | 12000

target: T1, CAIX on the surface of LS174T and …; assay: LigandTracer on SK-RC-52 cells, first binding event (kd1)

Binder | koff [s⁻¹]
B14 | ≤ 1e-05
B15 | 1.9e-05
B16 | 2.7e-05
B17 | 0.00011

target: T1, CAIX on the surface of LS174T and …; assay: LigandTracer on SK-RC-52 cells, second binding event (KD2)

Binder | Kd [nM]
B14 | 130
B16 | 61
B17 | 75

target: T1, CAIX on the surface of LS174T and …; assay: LigandTracer on SK-RC-52 cells, second binding event (ka2)

Binder | kon [M⁻¹ s⁻¹]
B14 | 13000
B16 | 3800
B17 | 34000

target: T2, Human CAIX (carbonic anhydrase IX); assay: ELISA titration of biotinylated human CAIX on captured Z-ABD fusion

Binder | Kd [nM]
B18 | 1.8
B19 | 4.5
B20 | 2.5
B21 | 6.4
B22 | 15
B23 | 4.3
B24 | 5.6
B25 | 14
B26 | 9.4
B27 | 6.1
B28 | 11

target: T2, Human CAIX (carbonic anhydrase IX); assay: ELISA screening, captured Z-ABD fusion, biotinylated human CAIX 0.25 ug/ml

Binder | absorbance at 450 nm [AU]
B18 | > 1
B19 | > 1
B20 | > 1
B21 | > 1
B22 | > 1
B23 | > 1
B24 | > 1
B25 | > 1
B26 | > 1
B27 | > 1
B28 | > 1

target: T2, Human CAIX (carbonic anhydrase IX); assay: ELISA screening, periplasmic Z-Z03639 fusion captured by His6-(Z01157)2, biotinylated human CAIX 0.5 or 1 ug/ml

Binder | binding result
B29 | binds
B30 | binds
B31 | binds
B32 | binds
B33 | binds

target: T1, CAIX on the surface of LS174T and …; assay: flow cytometry titration on SK-RC-52 cells, EC50 compared with that of Z08693; told of the maturated binders as a group

Binder | fold increase in binding ability against Z08693 [times]
B1 | ~100
B2 | ~100
B3 | ~100
B4 | ~100
B5 | ~100
B6 | ~100
B7 | ~100
B8 | ~100
B9 | ~100
B10 | ~100
B11 | ~100
B12 | ~100

target: T1, CAIX on the surface of LS174T and …; assay: blocking of cell-bound radioactivity on SK-RC-52 cells: 100-fold excess of the unlabeled Z variant 15 min before 13 nM 99mTc-(HE)3-Z09781 [panel A]

Binder | binding result
B34 | binds
B35 | binds
B36 | binds
B37 | binds
